From PubChem BioAssay AID1508624 (National Center for Advancing Translational Sciences (NCATS), 2021)
In all, about 48,000 compounds went through this assay and about 120 (0.25%) were called active. Another 4% or so got no clear call; they are omitted. Calls come from the whole dose curve; as a rule, active = well fitted activation curve with a large enough effect; inconclusive = small, poorly fitted or top-dose-only effect, or another doubt; inactive = no such curve, though single readings can be large or run the other way. This is one part of the list.

Assay: Primary qHTS for Identification of Small Molecule Activators of Huntingtin-Antisense Promoter Activity; note: nearly all actives have a fitted effect of over 55% in size
Conditions: HEK293 HTT-AS promoter firefly luciferase reporter, 24 h; series mostly up to 57.5 µM; activity change, positive = activation: at the top concentration
Method in brief: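 Luminescence was read after Dual-Glo reagent and a 10 min room-temperature incubation. Values were normalized to vehicle (0% activity) and zero RLU (-100% activity). Reporter HEK293 cells had been exposed to compounds (up to 57.5 uM final) for 24 h.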

Activity change, positive = activation, inactive:
COc1ccc2c(c1)CC(NC(=O)Nc1ccc(NC(C)=O)cc1)CO2 (stereo not drawn) -8.13%
COc1ccccc1CNC(=O)C1CCN(Cc2cc3ccccc3n2Cc2cccc(C)c2)CC1 -22.5%
Cc1ccccc1Cn1c(=O)n(CCCCC(=O)NCc2ccccc2Cl)c(=O)c2ccccc21 -16.1%
O=C(NCc1ccccc1Cl)c1ccc(NC(=O)c2nsc3ccccc23)cc1 -35.8%
O=C(CSc1nnc(-c2ccncc2)n1-c1ccccc1)Nc1ccc(Br)cc1 2.72%
CCOc1cc(C)c(C(C)C)cc1S(=O)(=O)n1ccnc1CC -35.4%
CCOc1ccc(NC(=O)C2CCN(S(=O)(=O)c3ccc4c(c3)oc(=O)n4C)CC2)cc1 -9.36%
COc1ccc2c(Oc3ccc(NC(=O)c4c(C)n(CC(C)(C)O)n(-c5ccccc5)c4=O)cc3F)ccnc2c1 -39%
CCOc1ccc2nc(N3CCC(C(=O)Nc4ccc(Br)cc4F)CC3)sc2c1 6.93%
Cc1ccccc1OCC(=O)Nc1c(C)ccc2nsnc12 -0.0324%
CC(C)c1ccc(S(=O)(=O)c2nnn3c2nc(N2CCOCC2)c2sccc23)cc1 -9.14%
CC1CCN(S(=O)(=O)c2ccc3c(ccn3CC(=O)NCc3ccc(N(C)C)cc3)c2)CC1 -32%
COc1ccc(Cl)cc1NC(=O)Cn1nc(C(F)(F)F)c2c1CCC2 -9.47%
COc1ccc(CCC(=O)NCc2nc3cccnc3n2Cc2cccc(OC)c2)cc1 -14%
Cc1c(C(=O)Nc2ccccc2Br)oc2ccc(S(=O)(=O)N3CCOCC3)cc12 -9.92%
CCC1CN(C(=O)N2CCC(C(=O)N3CCN(c4ccc(F)cc4)CC3)CC2)c2ccccc2O1 (stereo not drawn) -44.1%
COc1nc(N)nc2c1ncn2[C@@H]1O[C@H](CO)[C@@H](O)[C@@H]1O
CCCCc1nn2c(=O)cc(COC(=O)C(C)Oc3ccccc3)nc2s1 (stereo not drawn) 6.17%
Cc1ccc(NC(=O)C2CCN(C(=O)c3cnn(-c4ccccc4)c3-n3cccc3)CC2)cc1 -35.8%
CCOC(=O)N1CCc2c(sc3c2c(=O)n(-c2ccc(CC)cc2)c(=O)n3CC(=O)c2ccccc2)C1 -24.2%
COc1ccc(NS(=O)(=O)c2ccc3c(c2)CCCN3C(=O)C2CCC2)cc1OC -29.3%
O=C(NCCCN1CCN(c2ccccc2F)CC1)C1COc2ccccc2C1 (stereo not drawn) -10.9%
Cc1ccc(C(=O)NCC(=O)OCc2cc(=O)n3nc(C4CC4)sc3n2)cc1 -6.17%
COc1ccc(S(=O)(=O)Cc2ccc(C(=O)N3CCN(c4cc(C)ccc4C)CC3)o2)cc1 -14%
O=C(O)c1cccnc1SCc1cccc(Cl)c1 0%
O=C(Nc1cccc(-c2nc3ccccc3[nH]2)c1)c1c(F)cccc1F 1.09%
CCCNC(=O)c1c(NC(=O)c2ccc(C)cc2)sc2c1CCCCC2 0.533%
CC(=O)N1CCOc2cc(S(=O)(=O)Nc3cc(C(F)(F)F)ccc3Cl)c(C)cc21 -12.8%
CCSc1ncc(Cl)c(C(=O)N(Cc2ccc(C(C)(C)C)cc2)C2CCS(=O)(=O)C2)n1 (stereo not drawn) -34.3%
COc1ccc2c(c1)c1c(c(=O)n(Cc3ccccc3)c(=O)n1Cc1ccccc1)n2C -4.67%
CCOC(=O)c1c(C)oc2nc(C)nc(NCCCN3CCN(c4cc(Cl)ccc4C)CC3)c12 -10.7%
O=C(CCCN1CCC(O)(c2cccc(C(F)(F)F)c2)CC1)c1ccc(F)cc1 -14.4%
CCOC(=O)c1cccc(NC(=O)Nc2ccc3c(c2)N(C)C(=O)c2ccccc2S3)c1 -44.8%
Cc1ccc(-c2noc(-c3nnn(CC(=O)Nc4cccc(C(F)(F)F)c4)c3N)n2)cc1 24.2%
O=C(O)c1c2c(nc3ccc(S(=O)(=O)N4CCC(C(=O)NCc5ccc(Cl)cc5)CC4)cc13)CCCC2 4.12%
CCCCCOc1ccc(NC(=O)Cn2c(-c3cncs3)nc3ccccc32)cc1 -27%
COc1cccc(CNC(=O)Cn2c(SCC(=O)Nc3ccc(C)c(C)c3)nc3ccccc32)c1 0%
COc1ccc(S(=O)(=O)NCC(c2ccco2)N2CCN(c3ccccc3F)CC2)cc1C (stereo not drawn) -35.6%
COc1cc(/C=C/c2nc3cc(Cl)ccc3c(=O)n2-c2ccc(C)cc2C)cc(OC)c1OC -5.28%
CSc1ccc(NC(=O)Cn2nnnc2-c2ccccc2F)cc1 2.75%
Cc1cc(Nc2cccc(C(F)(F)F)c2)nc2ccc(NC(=O)c3cccnc3)cc12 -92.5%
CCOC(=O)c1c(C)oc2nc(C)nc(N3CCN(c4cccc(C)c4C)CC3)c12 -2.41%
Cc1cccc(OCCSc2nc3ccccc3n2CC(=O)N2CCOCC2)c1C -29.7%
CCOc1ccc(S(=O)(=O)Nc2ccc(OC)c(Cl)c2)c2cccnc12 -26.4%
Cc1ccc(NC(=O)C2CCCN(S(=O)(=O)c3c(C)nn(C)c3C)C2)c(C)c1 (stereo not drawn) -21.2%
CCOc1ccc(C2C(C(N)=O)=C(C)Nc3nc(-c4cccc(Cl)c4)nn32)cc1OC (stereo not drawn) -22.2%
CC[C@@H]([C@H](C)O)n1ncn(-c2ccc(N3CCN(c4ccc(OCC5CO[C@@](Cn6cncn6)(c6ccc(F)cc6F)C5)cc4)CC3)cc2)c1=O (stereo partly drawn) -21.8%
CCN1C(=O)c2ccccc2S(=O)c2ccc(C(=O)NCc3ccccc3OC)cc21 (stereo not drawn) -16.5%
CC1Cn2cc(C(=O)Nc3ccccc3C(F)(F)F)c(=O)c3c(Cl)ccc(c32)O1 (stereo not drawn) -5.73%
CC(C)Oc1ccc(C(=O)Nc2nc3c(s2)CC(C(C)(C)C)CC3)cc1 (stereo not drawn) -25.2%
O=C(NCC(c1ccc2c(c1)OCO2)N1CCN(c2ccccc2)CC1)c1ccccc1 (stereo not drawn) -22.2%
Cc1oc2ncn(CC(C)C)c(=O)c2c1C(=O)N(Cc1ccccc1)C(C)C -7.13%
Cc1nc2nc(C(F)(F)F)[nH]n2c(=O)c1Cc1ccccc1 7.07%
CN(C)c1ccccc1CN1CCCN(Cc2ccccc2N(C)C)C1c1ccncc1 -9.35%
Cc1ccc(Cn2c(C)c3cnn(CC(=O)N4CCN(c5ccc(F)cc5)CC4)c(=O)c3c2C)cc1 -85.5%
COc1cc(OC)c(NC(=O)c2cn(C)c(=O)c3cc(OC)c(OC)cc23)cc1Cl -3.91%
O=C(/C=C/c1ccccc1)N1CCN(Cc2cc(=O)n3nc(-c4ccccc4Cl)sc3n2)CC1 16.6%
c1ccc(CNCCNCc2ccccc2)cc1 -4.2%
C#C[C@]1(OC(C)=O)CC[C@H]2[C@@H]3CCC4=C/C(=N/O)CC[C@@H]4[C@H]3CC[C@@]21CC -50.8%
O=C(CN1C(=O)C2(SCC(=O)N2c2ccc(Cl)cc2)c2ccccc21)NCCc1ccccc1 (stereo not drawn) -14.8%
Cc1ccc(O)c(NC(=O)CCSc2nc(-c3ccco3)cc(C(F)(F)F)n2)c1 -12.8%
COc1ccc(Cl)cc1NS(=O)(=O)c1c(C)[nH]c(=O)[nH]c1=O 2.19%
CCOc1ccccc1NC(=O)c1c(NC(=O)c2ccncc2)sc2c1CCC(C(C)(C)C)C2 (stereo not drawn) -0.498%
CCc1cccc(NC(=O)c2cccc3c2C(=O)N(C2CCCCC2)C3)c1 -6.76%
O=C(NCC(c1cccnc1)N1CCc2ccccc21)C(=O)Nc1ccccc1F (stereo not drawn) -9.26%
COc1nnc(-c2ccc(N3CCCCC3)c(NC(=O)c3ccccc3)c2)c2ccccc12 -15.3%
CC(NC(=O)c1cc(-c2ccc(Cl)cc2)on1)c1ccccc1 (stereo not drawn) -16.5%
CCOC(=O)c1nnn(CC(=O)NC(=O)Nc2ccc(F)cc2)c1C(=O)OCC 6.4%
COc1ccc(CNC(=O)c2ccc3c(c2)N(Cc2ccccc2)CCS3)cc1 -19.4%
CCN(CC)S(=O)(=O)c1ccc(C(=O)O)cc1 -10%
CCOc1ccccc1N1CC(c2nc3ccccc3n2CCOc2ccccc2OC)CC1=O (stereo not drawn) -45.1%
Cn1nc(-c2ccc(C(=O)Nc3ccc(OC(F)(F)F)cc3)cc2)c2ccccc2c1=O -46.7%
COc1ccc(-c2nnc(SCC(=O)c3ccc([N+](=O)[O-])cc3)o2)cc1OC 6.24%
O=C(NCc1ccccc1Cl)C(=O)NCC(c1cccs1)S(=O)(=O)c1ccccc1 (stereo not drawn) -29.8%
Cc1ccc(-n2c(SCc3ccccc3C)nc3[nH]ncc3c2=O)cc1C -30.5%
N#C/C(=C\c1ccc(-c2ccc(Cl)c(C(=O)O)c2)o1)c1nc2ccccc2[nH]1 5.06%
COc1ccc2c(c1)Cc1sc(NC(=O)c3ccc(Cl)cc3)nc1-2 -27.4%
Cc1cccn2c(=O)c3cc(C(=O)NC(C)c4ccccc4)c(=N)n(CCOCCO)c3nc12 (stereo not drawn) -5.08%
COc1ccc(Cl)cc1NC(=O)c1c(NCc2cccs2)sc2c1CCCC2 -12.6%
Cc1cccc(-n2ncc(C(=O)Nc3ccc4c(c3)OCO4)c2C2CCN(C(=O)OC(C)(C)C)CC2)c1 1.47%
Cc1ccc(S(=O)(=O)Nc2c(C)nc3nc(C)[nH]n3c2=O)c(C)c1 -16.5%
CN(C)c1ccc(NC(=O)CSC2=Nc3ccccc3C3=NC(CC(=O)NCc4ccc5c(c4)OCO5)C(=O)N23)cc1 (stereo not drawn) -0.735%
Oc1ccc(NCc2ccccc2OCc2ccccc2Cl)cc1 -11.1%
CC(C)C(=O)c1cc2c(cc1NC(=O)c1ccccc1F)OCCO2 -15.9%
Cc1ccc(C(=O)c2oc3ccccc3c2NC(=O)COc2ccc(C(C)(C)C)cc2)cc1 8.37%
Cc1ccc(NC(=O)Cn2cnc3c(oc4ccccc43)c2=O)cc1 19.3%
COC(=O)c1ccc(NC(=O)CSc2nc3c(c(=O)n(C)c(=O)n3C)n2Cc2ccccc2)cc1 9.15%
COc1ccc(C(=O)NCc2nnc(SCC(=O)Nc3ccc(F)cc3)n2-c2ccccc2)cc1 -3.94%
CC(=O)N1CCc2cc(S(=O)(=O)CCC(=O)N3CCN(c4ccccc4F)CC3)ccc21 -23.3%
Cc1cc(Nc2ccc(Cl)cc2)n2cnnc2n1 -4.3%
COc1ccccc1Cc1nc2ccccc2nc1SCC(=O)N1CCCc2ccccc21 -7.93%
Cc1cccc(N2CCN(C(=O)CN3C(=O)COc4ccc(S(=O)(=O)N5CCCC5)cc43)CC2)c1C -10.4%
N#C/C(=C\c1c(Oc2ccc(F)cc2)nc2ccccn2c1=O)c1nc2ccccc2s1 -8.51% [at 11.5 µM, percent change from vehicle, -100% = no light]
